The densities may have been worked out from excess volumes.
Assay: xn = mol fraction of the nth substance listed
Settings: 298.15 K, 100 kPa

## Cc1ccccc1 + CCCCCCCCN(CCCCCCCC)CCCCCCCC
x2 = 0
  mass density: 862.2 kg/m3

## CCCCCC + CCCCCCCCN(CCCCCCCC)CCCCCCCC
x2 = 0
  mass density: 655.9 kg/m3

## CCC(=O)O + CCCCCCCCN(CCCCCCCC)CCCCCCCC
x2 = 0
  mass density: 988 kg/m3

## C1CCCCC1 + CCCCCCCCN(CCCCCCCC)CCCCCCCC
x2 = 0
  mass density: 774 kg/m3

## CCCCCCCCN(CCCCCCCC)CCCCCCCC + CCC(=O)O
x1 = 0.1009
  mass density: 940.6 kg/m3
x1 = 0.1976
  mass density: 914.5 kg/m3
x1 = 0.2481
  mass density: 902.4 kg/m3
x1 = 0.2955
  mass density: 889.7 kg/m3
x1 = 0.4007
  mass density: 864.8 kg/m3
x1 = 0.4399
  mass density: 857.5 kg/m3
x1 = 0.4803
  mass density: 850.8 kg/m3
x1 = 0.5303
  mass density: 843.7 kg/m3
x1 = 0.5704
  mass density: 838.7 kg/m3
x1 = 0.6226
  mass density: 832.9 kg/m3
x1 = 0.6671
  mass density: 828.7 kg/m3
x1 = 0.7339
  mass density: 823.2 kg/m3
x1 = 0.846
  mass density: 815.3 kg/m3

## CCCCCCCCN(CCCCCCCC)CCCCCCCC + C1CCCCC1
x1 = 0.0488
  mass density: 778.3 kg/m3
x1 = 0.1
  mass density: 782.3 kg/m3
x1 = 0.1503
  mass density: 785.6 kg/m3
x1 = 0.1988
  mass density: 788.4 kg/m3
x1 = 0.2456
  mass density: 790.6 kg/m3
x1 = 0.2986
  mass density: 792.9 kg/m3
x1 = 0.4459
  mass density: 797.8 kg/m3
x1 = 0.5811
  mass density: 800.9 kg/m3
x1 = 0.7606
  mass density: 804 kg/m3
x1 = 0.8867
  mass density: 805.6 kg/m3
x1 = 1
  mass density: 806.9 kg/m3

## Cc1ccc(C)cc1 + CCCCCCCCN(CCCCCCCC)CCCCCCCC
x2 = 0
  mass density: 856.6 kg/m3

## CCCCCCCCN(CCCCCCCC)CCCCCCCC + CCCCCC
x1 = 0.0516
  mass density: 681.1 kg/m3
x1 = 0.0992
  mass density: 699.3 kg/m3
x1 = 0.1459
  mass density: 714.2 kg/m3
x1 = 0.2417
  mass density: 737.8 kg/m3
x1 = 0.3974
  mass density: 763.4 kg/m3
x1 = 0.441
  mass density: 768.6 kg/m3
x1 = 0.4861
  mass density: 773.6 kg/m3
x1 = 0.5859
  mass density: 783 kg/m3
x1 = 0.6868
  mass density: 790.7 kg/m3
x1 = 0.7689
  mass density: 795.9 kg/m3
x1 = 0.858
  mass density: 800.7 kg/m3
x1 = 0.9047
  mass density: 803.1 kg/m3
x1 = 1
  mass density: 806.9 kg/m3

## CCO + CCCCCCCCN(CCCCCCCC)CCCCCCCC
x2 = 0
  mass density: 785.7 kg/m3

## CCCCCCCCN(CCCCCCCC)CCCCCCCC + CCO
x1 = 0.1494
  mass density: 798.3 kg/m3
x1 = 0.1961
  mass density: 800.2 kg/m3
x1 = 0.2841
  mass density: 802.7 kg/m3
x1 = 0.6275
  mass density: 806.4 kg/m3
x1 = 0.7297
  mass density: 806.8 kg/m3
x1 = 0.7805
  mass density: 806.9 kg/m3
x1 = 0.8074
  mass density: 806.9 kg/m3
x1 = 0.8848
  mass density: 807 kg/m3
x1 = 1
  mass density: 806.9 kg/m3

## CCCCCCCCN(CCCCCCCC)CCCCCCCC + Cc1ccc(C)cc1
x1 = 0.0869
  mass density: 843.7 kg/m3
x1 = 0.1762
  mass density: 834.7 kg/m3
x1 = 0.3627
  mass density: 823.1 kg/m3
x1 = 0.4607
  mass density: 819 kg/m3
x1 = 0.5627
  mass density: 815.7 kg/m3
x1 = 0.665
  mass density: 813 kg/m3
x1 = 0.7195
  mass density: 811.8 kg/m3
x1 = 0.8267
  mass density: 809.7 kg/m3
x1 = 1
  mass density: 806.9 kg/m3

## CCCCCCCCN(CCCCCCCC)CCCCCCCC + Cc1ccccc1
x1 = 0.1
  mass density: 843.4 kg/m3
x1 = 0.1999
  mass density: 832.6 kg/m3
x1 = 0.4999
  mass density: 816.8 kg/m3
x1 = 0.5488
  mass density: 815.3 kg/m3
x1 = 0.5993
  mass density: 813.9 kg/m3
x1 = 0.699
  mass density: 811.7 kg/m3
x1 = 0.7496
  mass density: 810.7 kg/m3
x1 = 0.8496
  mass density: 809 kg/m3
x1 = 0.8993
  mass density: 808.3 kg/m3
x1 = 1
  mass density: 806.9 kg/m3
